Test results as given in the supplement of paper PMC11125491.
± gives the standard deviation of the averaged measurements. Growth of baker's yeast expressing single-residue variants of Pneumocystis jirovecii dihydrofolate reductase in 8.8 or 44 µM methotrexate (about 75% and 90% inhibition of the wild type). Selection coefficient per generation; 0 = like wild type, above 0 = less sensitive, below 0 = more sensitive or loss of function. No active / inactive call per row; the paper calls resistant above 0.220 (8.8 µM) or 0.243 (44 µM) together with a significance test. At 44 µM about 15% of codons end with one read or none, so the lowest values are floors (replicate rank correlation 0.74; 0.94 at 8.8 µM).

B1: UniProt A0EPZ9; numbered along this chain (parent)
chain: MDWQKSLTLIVALTLSRGIGLKNDLPWKLKSDMMFFSRVTSGLLVTRSTGQMNVVLMGRKTWESLPAHSRPLKNRINVVISRQEVLDLGGGAYHARSLDDALALLSQIYDSTSKIQLNRVFVIGGGELCKAAMEHSRLNRIIATVIHNEVDCDVFFPIDFRSSQSCLPWRKQDHSVLEAWVGSKVPQGKINENGFIYEFEMWIRDI

Variants of: B1
Assay: selection coefficient against synonymous wild-type codons (log2 per generation); higher = faster growth than wild type
Conditions: with Saccharomyces cerevisiae carrying the variant on a plasmid
Experimental: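 Pooled growth of yeast carrying single-residue variants of P. jirovecii dihydrofolate reductase (own DFR1 gene intact), two passages at 30 °C, three cultures, sequenced before and after. Codons with under 15 starting reads are left out; codons of one change are averaged.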

Variant	selection coefficient against synonymous wild-type codons (log2) (methotrexate 8.8 µM)	selection coefficient against synonymous wild-type codons (log2) (methotrexate 44 µM)
V79K	-0.65 ± 0.1	-0.191 ± 0.072
A132T	-0.126 ± 0.044	-0.0532 ± 0.17
H135E	-0.314 ± 0.028	-0.314 ± 0.16
I196C	0.102 ± 0.046	0.116 ± 0.04
G90S	-0.0972 ± 0.055	-0.124 ± 0.1
G90P	0.0626 ± 0.036	0.104 ± 0.071
N118H	-0.145 ± 0.21	-0.142 ± 0.052
L104G	-0.593 ± 0.068	-0.21 ± 0.081
L104P	-0.554 ± 0.083	-0.0529 ± 0.069
I108A	-0.466 ± 0.092	-0.198 ± 0.074
L44P	0.227 ± 0.028	0.206 ± 0.053
L44Q	0.0678 ± 0.014	0.0278 ± 0.042
L44Y	-0.0991 ± 0.052	-0.0593 ± 0.12
N139S	-0.0614 ± 0.018	-0.0309 ± 0.06
K171C	-0.213 ± 0.03	-0.235 ± 0.18
I146F	0.357 ± 0.016	0.427 ± 0.011
M133V	-0.129 ± 0.038	-0.11 ± 0.15
R119W	-0.327 ± 0.05	-0.226 ± 0.1
R119M	-0.112 ± 0.0077	-0.207 ± 0.11
R119Q	0.136 ± 0.04	0.134 ± 0.039
A67P	0.0095 ± 0.12	-0.0335 ± 0.072
K130V	-0.358 ± 0.014	-0.281 ± 0.046
L105Q	-0.666 ± 0.096	-0.232 ± 0.045
L105Y	-0.525 ± 0.048	-0.0234 ± 0.064

Variant	selection coefficient against synonymous wild-type codons (log2) (methotrexate 8.8 µM)	selection coefficient against synonymous wild-type codons (log2) (methotrexate 44 µM)
T8K	-0.562 ± 0.059	-0.357 ± 0.02
T8S	-0.228 ± 0.082	-0.173 ± 0.14
S113G	-0.0749 ± 0.031	-0.043 ± 0.096
G50K	-0.0875 ± 0.022	-0.059 ± 0.028
G50L	-0.192 ± 0.05	-0.203 ± 0.17
N191D	0.0297 ± 0.023	0.0227 ± 0.0077
V150E	0.384 ± 0.03	0.37 ± 0.033
V150G	0.174 ± 0.049	0.0945 ± 0.056
Y109H	0.101 ± 0.012	0.0985 ± 0.17
Y109R	-0.0492 ± 0.044	-0.0348 ± 0.12
A131W	-0.404 ± 0.073	-0.243 ± 0.14
A131T	-0.11 ± 0.037	-0.0384 ± 0.12
K73C	-0.23 ± 0.068	-0.182 ± 0.14
K73Q	-0.0529 ± 0.023	-0.0632 ± 0.17
K73Y	-0.321 ± 0.077	-0.0731 ± 0.083
I203N	0.107 ± 0.073	0.0985 ± 0.071
Q83D	0.178 ± 0.032	0.206 ± 0.23
Q83L	-0.494 ± 0.11	-0.212 ± 0.11
Q187C	-0.0787 ± 0.049	-0.0648 ± 0.037
L21V	0.135 ± 0.014	0.112 ± 0.056
L21C	0.264 ± 0.023	0.262 ± 0.017
L21M	0.137 ± 0.035	0.173 ± 0.047
F155R	0.214 ± 0.058	0.156 ± 0.075
M34A	0.172 ± 0.06	0.137 ± 0.081

Variant	selection coefficient against synonymous wild-type codons (log2) (methotrexate 8.8 µM)	selection coefficient against synonymous wild-type codons (log2) (methotrexate 44 µM)
L86G	0.0492 ± 0.02	-0.106 ± 0.061
L86E	0.095 ± 0.054	0.035 ± 0.1
I10D	0.821 ± 0.046	1.11 ± 0.028
Y93K	-0.453 ± 0.07	-0.332 ± 0.047
T14L	-0.447 ± 0.13	-0.241 ± 0.14
T14R	-0.0244 ± 0.075	0.158 ± 0.08
T14A	-0.131 ± 0.11	-0.167 ± 0.11
M57Y	-0.0257 ± 0.051	0.00717 ± 0.049
M57C	-0.504 ± 0.049	-0.214 ± 0.14
M57T	-0.48 ± 0.15	-0.241 ± 0.1
G125H	-0.552 ± 0.08	-0.12 ± 0.059
G125I	-0.814 ± 0.091	-0.284 ± 0.094
G125D	-0.657 ± 0.046	-0.453 ± 0.025
D159H	-0.0522 ± 0.075	-0.0669 ± 0.15
L177R	-0.707 ± 0.16	-0.34 ± 0.068
L177W	-0.338 ± 0.088	-0.324 ± 0.15
I141Q	-0.699 ± 0.11	-0.265 ± 0.083
P186Q	-0.0996 ± 0.054	-0.227 ± 0.12
P186N	-0.171 ± 0.082	-0.0854 ± 0.18
P186A	-0.212 ± 0.12	-0.255 ± 0.13
V122R	-0.671 ± 0.1	-0.168 ± 0.1
V122T	-0.679 ± 0.14	-0.3 ± 0.064
I142E	-0.724 ± 0.011	-0.176 ± 0.15
L13A	0.351 ± 0.058	0.333 ± 0.065

Variant	selection coefficient against synonymous wild-type codons (log2) (methotrexate 8.8 µM)	selection coefficient against synonymous wild-type codons (log2) (methotrexate 44 µM)
L13I	0.174 ± 0.059	0.0641 ± 0.02
L13E	0.29 ± 0.02	0.273 ± 0.017
R70Q	-0.188 ± 0.094	-0.195 ± 0.1
R70T	-0.278 ± 0.14	-0.0786 ± 0.097
D151I	-0.221 ± 0.07	-0.18 ± 0.46
D151S	-0.0671 ± 0.037	-0.181 ± 0.12
V176K	0.0555 ± 0.025	0.0406 ± 0.074
K114C	-0.251 ± 0.015	0.127 ± 0.17
D32L	-0.492 ± 0.11	-0.248 ± 0.13
W202I	-0.049 ± 0.08	-0.0627 ± 0.095
E198N	-0.0104 ± 0.036	-0.226 ± 0.12
E198P	-0.476 ± 0.069	-0.113 ± 0.066
E198D	0.0487 ± 0.039	0.00516 ± 0.12
A12H	-0.248 ± 0.082	-0.0177 ± 0.088
A12W	-0.532 ± 0.17	-0.248 ± 0.1
V145C	0.0109 ± 0.00048	-0.00226 ± 0.084
D205T	-0.243 ± 0.12	-0.165 ± 0.14
I80N	-0.588 ± 0.026	-0.0862 ± 0.096
I80W	-0.559 ± 0.12	-0.143 ± 0.085
L65S	-0.342 ± 0.14	-0.165 ± 0.1
I123T	0.224 ± 0.031	0.441 ± 0.066
I123S	0.0222 ± 0.021	0.201 ± 0.12
V78F	-0.351 ± 0.066	0.171 ± 0.58
R170W	-0.262 ± 0.086	-0.309 ± 0.12

Variant	selection coefficient against synonymous wild-type codons (log2) (methotrexate 8.8 µM)	selection coefficient against synonymous wild-type codons (log2) (methotrexate 44 µM)
A143R	0.0731 ± 0.029	0.00783 ± 0.072
A143L	-0.0815 ± 0.034	-0.166 ± 0.13
W169V	-0.189 ± 0.072	-0.185 ± 0.1
W169D	-0.75 ± 0.1	-0.399 ± 0.07
W3V	0.214 ± 0.069	0.23 ± 0.07
W3Q	0.337 ± 0.018	0.378 ± 0.013
R47D	0.11 ± 0.024	0.114 ± 0.039
R140N	0.0456 ± 0.068	0.0894 ± 0.079
K30A	0.0997 ± 0.039	0.098 ± 0.064
K30V	0.0358 ± 0.053	0.000835 ± 0.14
R137G	0.158 ± 0.043	0.287 ± 0.13
R137Y	-0.0908 ± 0.0077	-0.0362 ± 0.13
R137A	0.138 ± 0.039	0.242 ± 0.066
D87K	-0.198 ± 0.1	-0.0213 ± 0.44
L29F	0.0813 ± 0.015	0.0362 ± 0.049
L29R	0.131 ± 0.045	0.315 ± 0.082
A101D	-0.411 ± 0.37	-0.0784 ± 0.22
V11T	0.476 ± 0.082	0.519 ± 0.12
S165T	-0.0223 ± 0.034	-0.111 ± 0.066
S165N	-0.0181 ± 0.039	-0.0472 ± 0.14
